{"source": "patent US20050250127A1", "about": "“Methods for identifying modulators of MDA-7 mediated apoptosis” (priority 2002, published 2005)", "key": {"[1]": {"tested_on": "FO-1 cells", "assay": "DNA fragmentation assay in FO-1 cells", "format": "cell-based, human", "conditions": "Ad.mda-7 100 pfu/cell, 1 μM SB203580, 3 days", "experimental": "(§1) FIG. 4A-C. […] DNA was isolated from the cells and fragmentation was analyzed as described in Section 6. […] Cell cycle was analyzed as described in Section 6. C. […] Percentage of apoptotic cells at day 1 and day 3 post-infection in each group were plotted."}, "[2]": {"tested_on": "FO-1 cells", "assay": "Cell cycle analysis (FACS), apoptotic cells in FO-1", "format": "cell-based, human", "conditions": "Ad.mda-7 100 pfu/cell; 1 μM SB203580 or Ad.p38DN 100 pfu/cell", "experimental": "as §1\nCell cycle analysis. Cells were harvested, washed in PBS and fixed overnight at −20° C. in 70% ethanol. The cells were treated with RNase A (1 mg/ml) at 37° C. for 30 min and then with propidium iodide (50 μg/ml). Cell cycle was analyzed using a FACScan flow cytometer and data were analyzed using CellQuest software (Becton Dickinson, San Jose, Calif.)."}, "[3]": {"tested_on": "FO-1 melanoma cells", "assay": "MTT cell viability assay in FO-1 cells", "format": "cell-based, human", "conditions": "Ad.mda-7 100 pfu/cell; 1 μM SB203580 or Ad.p38DN 100 pfu/cell; 4 days", "experimental": "FIG. 3. […] Cell viability was measured by MTT assay after 4 days.\nFIG. 5. inhibition of the GADD family of genes protects FO-1 melanoma cells from Ad.mda-7-mediated cell death. FO-1 cells were transfected with the indicated antisense construct either alone or in combination. […] Cell viability was measured by MTT assay. Cell viability of Ad.vec treated cells was regarded as 1.\nCell Lines, Reagents and Cell Growth Assays. Normal immortal human melanocyte (FM516-SV; FM516), WM35 early radial growth phase (RGP) primary human melanoma and HO-1, FO-1 and MeWo metastatic melanoma cell lines were cultured as previously described (Kerbel et al., 1984, J. Natl. Cancer Inst. 72, 93-108; Fisher et al., 1985, J. Interferon Res. 5, 11-22; Herlyn,1990. Cancer Metastasis Rev. 9, 101-112; Melber et al., 1989, Cancer Res. 49, 3650-3655). SB203580 was purchased from Sigma (St Louis, Mo.). Cell growth and viable cell numbers were monitored by 3-(4,5-dimethylthiazol-2-yl)-2,5-diphenyl tetrazolium bromide (MTT) staining as described in Lebedeva et al., 2000, Cancer Res. 60, 6052-6060."}, "[4]": {"tested_on": "BCL-2 protein in FO-1 cells", "assay": "Western blot of BCL-2 protein in FO-1 cells"}, "[5]": {"tested_on": "DU-145 prostate cancer cells", "assay": "Apoptotic fraction (A0) by FACS in DU-145", "format": "cell-based, human", "conditions": "Ad.vec or Ad.mda-7 100 p.f.u./cell, 48 h", "experimental": "Cells were analyzed for cell viability by the MTT proliferation assay as described, 5-days after infection.\nAnnexin-V binding assay. Cells were trypsinized and washed once with complete media. Aliquots of cells (5×10^5) were resuspended in complete media (0.5 ml) and stained with FITC-labeled Annexin-V (Oncogene Research Products, Boston, Mass.) according to the manufacturer's instructions. Propidium Iodide (PI) was added to the samples after staining with Annexin-V to exclude late apoptotic and necrotic cells. FACS assay was performed immediately after staining. The percentage of the cells in the apoptotic (Ao) fraction was calculated using CellQuest software (Becton Dickinson)."}, "[6]": {"tested_on": "GADD family of genes in FM516-SV (FM516) cells", "assay": "Northern blot of GADD family genes in FM516 immortalized melanocytes", "format": "cell-based, human", "experimental": "Total RNA was extracted and Northern analysis was performed using the indicated cDNA probes as described in Section 6. […] C.\nRNA Isolation and Northern Blot Analysis. Total RNA was extracted from the cells using Qiagen RNeasy mini kit (Qiagen) according to the manufacturer's protocol and Northern blotting was performed as described in Su et al., 1997, Proc. Natl. Acad. Sci. USA. 94, 9125-9130. The cDNA probes used were full length human GADD153, full length human GADD45-alpha, beta and gamma, a 500-bp fragment from human GADD34 and full-length human GAPDH."}}}
{"smiles": "C[S+]([O-])c1ccc(-c2nc(-c3ccncc3)c(-c3ccc(F)cc3)[nH]2)cc1", "note": "(centres unmarked) [SB203580]", "values": [{"measurement": "Ad.mda-7-mediated DNA fragmentation in presence of inhibitor", "setting": "[1]", "value": "effectively inhibited"}, {"measurement": "induction of apoptosis by Ad.mda-7 in presence of p38 MAPK blockade", "setting": "[2]", "value": "prevented the induction of apoptosis"}, {"measurement": "effect on Ad.mda-7 reduction of cell viability", "setting": "[3]", "value": "reversed the mda-7 inhibitory effect"}, {"measurement": "Ad.mda-7-mediated downregulation of the BCL-2 protein", "setting": "[4]; Ad.mda-7 100 pfu/cell, 1 μM SB203580, 3 days", "value": "prevented Ad.mda-7-mediated downregulation"}, {"measurement": "Ad.mda-7-mediated modulation of other pro- or anti-apoptotic proteins", "setting": "[4]; FO-1", "value": "did not have any effect"}]}
{"smiles": "O=c1c(-c2ccc(O)cc2)coc2cc(O)cc(O)c12", "note": "[Genistein]", "values": [{"measurement": "A0 (sub G0/G1) profile in presence of inhibitor", "setting": "[5]", "value": "No overall profile change"}]}
{"smiles": "COS(C)(=O)=O", "note": "[methyl methanesulfonate]", "values": [{"measurement": "induction of the GADD family of genes", "setting": "[6]", "value": "induces the GADD family of genes"}]}
{"smiles": "N#C/C(=C\\c1ccc(O)c(O)c1)C(=O)NCc1ccccc1", "note": "[AG490]", "values": [{"measurement": "A0 (sub G0/G1) profile in presence of inhibitor", "setting": "[5]", "value": "No overall profile change"}]}
